# Test results reported in the supplement of paper PMC8728848.
# The other results are listed elsewhere or left out.
# B1: SLR2P3F12 (Tachypleus tridentatus), TAL2_TACTR (protein)
# chain: MEKGTPPTHDSDNWMGRAKKIGNGGWNQFQFLFFDPNGYLYAVSKDKLYKASPPQSDTDNWIARATEIGSGGWSGFKSLFFHPNGYLYAVHGQRLYKALPPVSNQD
# Key:
# Test in all cases: glycan array binding signal (z-score within array); higher = stronger binding
# Conditions in all cases: glycan notation: IUPAC condensed, linker removed
# Fuc(a1-2)Gal = target: Fuc(a1-2)Gal
# Procedure, shortened: (§1)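 The Consortium for Functional Glycomics database supplied 3228 glycan arrays, of which those lacking an available protein sequence were dropped. The binding signal, a within-array Z-score, was averaged across arrays of the same protein sequence and across linkers. Negative scores can be read as non-binding.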
# Fuc(a1-2)Gal(b1-3)GalNAc = target: Fuc(a1-2)Gal(b1-3)GalNAc
# Procedure, shortened: as §1
# [1] = target: Fuc(a1-2)Gal(b1-3)GalNAc(b1-3)Gal
# Procedure, shortened: as §1
# [2] = target: Fuc(a1-2)Gal(b1-3)GalNAc(b1-3)Gal(a1-4)Gal(b1-4)Glc
# Procedure, shortened: as §1
# [3] = target: Fuc(a1-2)Gal(b1-3)GalNAc(b1-4)[Neu5Ac(a2-3)]Gal(b1-4)Glc
# Procedure, shortened: as §1
# Fuc(a1-2)Gal(b1-3)GlcNAc = target: Fuc(a1-2)Gal(b1-3)GlcNAc
# Procedure, shortened: as §1
# [4] = target: Fuc(a1-2)Gal(b1-3)GlcNAc(b1-3)Gal(b1-4)Glc
# Procedure, shortened: as §1
# [5] = target: Fuc(a1-2)Gal(b1-3)[Fuc(a1-4)]GlcNAc
# Procedure, shortened: as §1
# Fuc(a1-2)Gal(b1-4)Glc = target: Fuc(a1-2)Gal(b1-4)Glc
# Procedure, shortened: as §1
# Fuc(a1-2)Gal(b1-4)Glc6S = target: Fuc(a1-2)Gal(b1-4)Glc6S
# Procedure, shortened: as §1
# Fuc(a1-2)Gal(b1-4)GlcNAc = target: Fuc(a1-2)Gal(b1-4)GlcNAc
# Procedure, shortened: as §1
# [6] = target: Fuc(a1-2)Gal(b1-4)GlcNAc(b1-3)Gal(b1-4)GlcNAc
# Procedure, shortened: as §1
# [7] = target: Fuc(a1-2)Gal(b1-4)GlcNAc(b1-3)Gal(b1-4)GlcNAc(b1-3)Gal(b1-4)GlcNAc
# Procedure, shortened: as §1
# [8] = target: Fuc(a1-2)Gal(b1-4)GlcNAc6S
# Procedure, shortened: as §1
# [9] = target: Fuc(a1-2)Gal(b1-4)[Fuc(a1-3)]GlcNAc
# Procedure, shortened: as §1
# [10] = target: Fuc(a1-2)Gal(b1-4)[Fuc(a1-3)]GlcNAc(b1-3)Gal(b1-4)[Fuc(a1-3)]GlcNAc
# Procedure, shortened: as §1
# [11] = target: Fuc(a1-2)Gal(b1-4)[Fuc(a1-3)]GlcNAc(b1-3)Gal(b1-4)[Fuc(a1-3)]GlcNAc(b1-3)Gal(b1-4)[Fuc(a1-3)]GlcNAc
# Procedure, shortened: as §1
# Fuc(a1-2)Gal6S(b1-4)Glc = target: Fuc(a1-2)Gal6S(b1-4)Glc
# Procedure, shortened: as §1
# [12] = target: Fuc(a1-2)Gal6S(b1-4)Glc6S
# Procedure, shortened: as §1
# [13] = target: Fuc(a1-2)Gal6S(b1-4)GlcNAc
# Procedure, shortened: as §1
# Fuc(a1-2)[Gal(a1-3)]Gal = target: Fuc(a1-2)[Gal(a1-3)]Gal
# Procedure, shortened: as §1
# [14] = target: Fuc(a1-2)[Gal(a1-3)]Gal(b1-3)GlcNAc
# Procedure, shortened: as §1
# [15] = target: Fuc(a1-2)[Gal(a1-3)]Gal(b1-4)Glc
# Procedure, shortened: as §1
# [16] = target: Fuc(a1-2)[Gal(a1-3)]Gal(b1-4)GlcNAc
# Procedure, shortened: as §1
# [17] = target: Fuc(a1-2)[Gal(a1-3)]Gal(b1-4)[Fuc(a1-3)]GlcNAc
# Procedure, shortened: as §1
# [18] = target: Fuc(a1-2)[Gal(a1-4)]Gal(b1-4)GlcNAc
# Procedure, shortened: as §1
# [19] = target: Fuc(a1-2)[GalNAc(a1-3)]Gal
# Procedure, shortened: as §1
# [20] = target: Fuc(a1-2)[GalNAc(a1-3)]Gal(b1-3)GlcNAc
# Procedure, shortened: as §1
# [21] = target: Fuc(a1-2)[GalNAc(a1-3)]Gal(b1-4)Glc
# Procedure, shortened: as §1
# [22] = target: Fuc(a1-2)[GalNAc(a1-3)]Gal(b1-4)GlcNAc
# Procedure, shortened: as §1
# [23] = target: Fuc(a1-2)[GalNAc(a1-3)]Gal(b1-4)[Fuc(a1-3)]GlcNAc
# Procedure, shortened: as §1
# [24] = target: Fuc(a1-2)[GalNAc(a1-4)]Gal(b1-4)GlcNAc
# Procedure, shortened: as §1
# [25] = target: Fuc(a1-2)[GalNAc(b1-3)]Gal
# Procedure, shortened: as §1
# Fuc(a1-3)GlcNAc = target: Fuc(a1-3)GlcNAc
# Procedure, shortened: as §1
# [26] = target: Fuc(a1-3)[Gal(b1-4)]Glc6S
# Procedure, shortened: as §1
# [27] = target: Fuc(a1-3)[Gal(b1-4)]GlcNAc
# Procedure, shortened: as §1
# [28] = target: Fuc(a1-3)[Gal(b1-4)]GlcNAc(b1-2)Man(a1-3)[Fuc(a1-3)[Gal(b1-4)]GlcNAc(b1-2)Man(a1-6)]Man(b1-4)GlcNAc(b1-4)GlcNAc
# Procedure, shortened: as §1
# [29] = target: Fuc(a1-3)[Gal(b1-4)]GlcNAc(b1-2)Man(a1-6)[Gal(b1-4)GlcNAc(b1-2)Man(a1-3)]Man(b1-4)GlcNAc(b1-4)GlcNAc
# Procedure, shortened: as §1
# [30] = target: Fuc(a1-3)[Gal(b1-4)]GlcNAc(b1-3)Gal(b1-3)[Fuc(a1-4)]GlcNAc
# Procedure, shortened: as §1
# [31] = target: Fuc(a1-3)[Gal(b1-4)]GlcNAc(b1-4)Gal(b1-4)[Fuc(a1-3)]GlcNAc
# Procedure, shortened: as §1
# [32] = target: Fuc(a1-3)[Gal(b1-4)]GlcNAc(b1-4)Gal(b1-4)[Fuc(a1-3)]GlcNAc(b1-4)Gal(b1-4)[Fuc(a1-3)]GlcNAc
# Procedure, shortened: as §1
# [33] = target: Fuc(a1-3)[Gal(b1-4)]GlcNAc6S
# Procedure, shortened: as §1
# [34] = target: Fuc(a1-3)[Gal3S(b1-4)]Glc6S
# Procedure, shortened: as §1
# [35] = target: Fuc(a1-3)[Gal3S(b1-4)]GlcNAc
# Procedure, shortened: as §1
# [36] = target: Fuc(a1-3)[Gal3S(b1-4)]GlcNAc6S
# Procedure, shortened: as §1
# [37] = target: Fuc(a1-3)[GalNAc(b1-4)]GlcNAc
# Procedure, shortened: as §1
# Fuc(a1-4)GlcNAc = target: Fuc(a1-4)GlcNAc
# Procedure, shortened: as §1
# Fuc(b1-3)GlcNAc = target: Fuc(b1-3)GlcNAc
# Procedure, shortened: as §1
# Gal(a1-2)Gal = target: Gal(a1-2)Gal
# Procedure, shortened: as §1
# Gal(a1-3)Gal = target: Gal(a1-3)Gal
# Procedure, shortened: as §1
# Gal(a1-3)Gal(b1-3)GlcNAc = target: Gal(a1-3)Gal(b1-3)GlcNAc
# Procedure, shortened: as §1
# Gal(a1-3)Gal(b1-4)Glc = target: Gal(a1-3)Gal(b1-4)Glc
# Procedure, shortened: as §1
# Gal(a1-3)Gal(b1-4)GlcNAc = target: Gal(a1-3)Gal(b1-4)GlcNAc
# Procedure, shortened: as §1
# [38] = target: Gal(a1-3)Gal(b1-4)[Fuc(a1-3)]GlcNAc
# Procedure, shortened: as §1
# Gal(a1-3)GalNAc = target: Gal(a1-3)GalNAc
# Procedure, shortened: as §1
# [39] = target: Gal(a1-3)[Gal(a1-4)]Gal(b1-4)GlcNAc
# Procedure, shortened: as §1
# Gal(a1-4)Gal(b1-4)Glc = target: Gal(a1-4)Gal(b1-4)Glc
# Procedure, shortened: as §1
# Gal(a1-4)Gal(b1-4)GlcNAc = target: Gal(a1-4)Gal(b1-4)GlcNAc
# Procedure, shortened: as §1
# Gal(a1-4)GlcNAc = target: Gal(a1-4)GlcNAc
# Procedure, shortened: as §1
# Gal(a1-6)Glc = target: Gal(a1-6)Glc
# Procedure, shortened: as §1
binder,measurement,setting,value
B1,glycan array binding signal (z-score),Fuc(a1-2)Gal,-0.16
same,glycan array binding signal (z-score),Fuc(a1-2)Gal(b1-3)GalNAc,-0.372
same,glycan array binding signal (z-score),[1],0.673
same,glycan array binding signal (z-score),[2],-0.287
same,glycan array binding signal (z-score),[3],-0.195
same,glycan array binding signal (z-score),Fuc(a1-2)Gal(b1-3)GlcNAc,-0.047
same,glycan array binding signal (z-score),[4],-0.057
same,glycan array binding signal (z-score),[5],-0.226
same,glycan array binding signal (z-score),Fuc(a1-2)Gal(b1-4)Glc,0.802
same,glycan array binding signal (z-score),Fuc(a1-2)Gal(b1-4)Glc6S,-0.273
same,glycan array binding signal (z-score),Fuc(a1-2)Gal(b1-4)GlcNAc,-0.323
same,glycan array binding signal (z-score),[6],-0.352
same,glycan array binding signal (z-score),[7],-0.221
same,glycan array binding signal (z-score),[8],-0.447
same,glycan array binding signal (z-score),[9],-0.181
same,glycan array binding signal (z-score),[10],1.09
same,glycan array binding signal (z-score),[11],-0.179
same,glycan array binding signal (z-score),Fuc(a1-2)Gal6S(b1-4)Glc,-0.39
same,glycan array binding signal (z-score),[12],-0.343
same,glycan array binding signal (z-score),[13],0.264
same,glycan array binding signal (z-score),Fuc(a1-2)[Gal(a1-3)]Gal,-0.372
same,glycan array binding signal (z-score),[14],-0.248
same,glycan array binding signal (z-score),[15],-0.321
same,glycan array binding signal (z-score),[16],-0.417
same,glycan array binding signal (z-score),[17],-0.185
same,glycan array binding signal (z-score),[18],0.185
same,glycan array binding signal (z-score),[19],-0.104
same,glycan array binding signal (z-score),[20],0.556
same,glycan array binding signal (z-score),[21],-0.365
same,glycan array binding signal (z-score),[22],-0.352
same,glycan array binding signal (z-score),[23],0.313
same,glycan array binding signal (z-score),[24],2.01
same,glycan array binding signal (z-score),[25],-0.327
same,glycan array binding signal (z-score),Fuc(a1-3)GlcNAc,-0.301
same,glycan array binding signal (z-score),[26],-0.103
same,glycan array binding signal (z-score),[27],-0.326
same,glycan array binding signal (z-score),[28],-0.066
same,glycan array binding signal (z-score),[29],0.218
same,glycan array binding signal (z-score),[30],-0.438
same,glycan array binding signal (z-score),[31],-0.412
same,glycan array binding signal (z-score),[32],0.667
same,glycan array binding signal (z-score),[33],1.11
same,glycan array binding signal (z-score),[34],-0.266
same,glycan array binding signal (z-score),[35],-0.46
same,glycan array binding signal (z-score),[36],-0.534
same,glycan array binding signal (z-score),[37],-0.329
same,glycan array binding signal (z-score),Fuc(a1-4)GlcNAc,1.42
same,glycan array binding signal (z-score),Fuc(b1-3)GlcNAc,0.809
same,glycan array binding signal (z-score),Gal(a1-2)Gal,-0.288
same,glycan array binding signal (z-score),Gal(a1-3)Gal,-0.2
same,glycan array binding signal (z-score),Gal(a1-3)Gal(b1-3)GlcNAc,1.14
same,glycan array binding signal (z-score),Gal(a1-3)Gal(b1-4)Glc,0.739
same,glycan array binding signal (z-score),Gal(a1-3)Gal(b1-4)GlcNAc,-0.347
same,glycan array binding signal (z-score),[38],-0.316
same,glycan array binding signal (z-score),Gal(a1-3)GalNAc,0.267
same,glycan array binding signal (z-score),[39],0.143
same,glycan array binding signal (z-score),Gal(a1-4)Gal(b1-4)Glc,-0.342
same,glycan array binding signal (z-score),Gal(a1-4)Gal(b1-4)GlcNAc,-0.415
same,glycan array binding signal (z-score),Gal(a1-4)GlcNAc,-0.332
same,glycan array binding signal (z-score),Gal(a1-6)Glc,-0.386
